Data reported in a collection of fitness landscapes (doi:10.1016/j.celrep.2020.107928).
In all, about 81,000 sequences were measured (“one-hybrid fitness for binding parS DNA”: median about -0.17, highest 2% from about 0.51 on). This is one part of the list.

B1: Caulobacter ParB omega fusion; a variant is named by its letters at X, in order, B8GW30 (parent)
chain: MESVVVGEPGMSEGRRGLGRGLSALLGEVDAAPAQAPGEQLGGSREAPIEILQRNPDQPRRTFREEDLEDLSNSIREKGVLQPILVRPSPDTAGEYQIVAGERAWRAAQRAGLKTVPIMVRELDDLAVLEIGIIENVQRADLNVLEEALSYKVLMEKFERTQENIAQTIGKSXSHVANXMRLLXLPDEVQSYLVSGELTAXHARAIAAAADPVALAKQIIEGGLSVRETEALARKAPNLSAGKSKGGRPPRVKDTDTQALESDLSSVLGLDVSIDHRGSTGTLTITYATLEQLDDLCNRLTRGI

Variants of: B1
Test: one-hybrid fitness for binding parS DNA (scaled: cognate 1, non-cognate 0); higher = stronger binding
Settings: with parS DNA site
Outline: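 On M9-minus-histidine containing 0.1 mM IPTG and 5 mM 3-AT, E. coli USO cells with a HIS3 reporter, site 19 bp from the promoter, grew 48 hours at 37°C to select Caulobacter ParB libraries randomised at four specificity codons. Plasmids from before and after were Illumina-sequenced, with three replicate libraries pooled and variants under 10 reads left out. Fitness is the log change in variant-to-wild-type read ratio, rescaled against cognate and non-cognate.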

Variant | one-hybrid fitness for binding parS DNA
QQTI | ≤ 0.2
PKNM | ≤ 0.2
STIR | ≤ 0.2
DKIC | ≤ 0.2
YDTP | ≤ 0.2
MSYR | ≤ 0.2
GRNF | ≤ 0.2
VCPA | ≤ 0.2
RVGL | ≤ 0.2
MCSS | ≤ 0.2
RRNN | 0.811
AFTI | ≤ 0.2
TNNY | ≤ 0.2
QHMC | ≤ 0.2
FPWR | ≤ 0.2
QNLK | ≤ 0.2
AYRD | ≤ 0.2
ALSG | ≤ 0.2
LYYS | ≤ 0.2
TQST | ≤ 0.2
EMCR | ≤ 0.2
LPTT | ≤ 0.2
FYYR | ≤ 0.2
FAEG | ≤ 0.2

Variant | one-hybrid fitness for binding parS DNA
CHTA | ≤ 0.2
NIVR | ≤ 0.2
SCKA | ≤ 0.2
NGPS | ≤ 0.2
MLCG | ≤ 0.2
PPGN | ≤ 0.2
DGNA | ≤ 0.2
MWYG | ≤ 0.2
RRVH | ≤ 0.2
EKRV | ≤ 0.2
NMDV | ≤ 0.2
PDTT | ≤ 0.2
HQFS | ≤ 0.2
KDWW | ≤ 0.2
ERSL | ≤ 0.2
ETKL | ≤ 0.2
KPLL | ≤ 0.2
CPYN | ≤ 0.2
PINC | ≤ 0.2
IVPC | ≤ 0.2
PTQG | ≤ 0.2
YMAL | ≤ 0.2
LVVD | ≤ 0.2
YPRR | ≤ 0.2

Variant | one-hybrid fitness for binding parS DNA
KQMI | ≤ 0.2
LHYS | ≤ 0.2
HVKA | ≤ 0.2
TNPL | ≤ 0.2
CRIR | ≤ 0.2
SEQQ | ≤ 0.2
HHLW | ≤ 0.2
SVQD | ≤ 0.2
QVCV | ≤ 0.2
FGSS | ≤ 0.2
SYHG | ≤ 0.2
SDRI | ≤ 0.2
IVNL | ≤ 0.2
PGKM | ≤ 0.2
AISI | ≤ 0.2
ESGW | ≤ 0.2
QRYT | ≤ 0.2
RTNA | 0.722
MWPE | ≤ 0.2
SRHC | ≤ 0.2
TSNM | ≤ 0.2
LAVS | ≤ 0.2
KIMF | ≤ 0.2
ICCR | ≤ 0.2

Variant | one-hybrid fitness for binding parS DNA
KSLF | ≤ 0.2
DHRT | ≤ 0.2
KGTG | ≤ 0.2
NGSP | ≤ 0.2
TMCI | ≤ 0.2
SLFG | ≤ 0.2
PHIY | ≤ 0.2
SSKF | ≤ 0.2
YQVV | ≤ 0.2
DQQS | ≤ 0.2
CIKC | ≤ 0.2
RVDD | ≤ 0.2
QLKK | ≤ 0.2
NVHT | ≤ 0.2
PRLH | ≤ 0.2
RLWN | 0.443
RNVA | 0.312
FNTM | ≤ 0.2
ACNI | ≤ 0.2
NDFR | ≤ 0.2
QPNP | ≤ 0.2
LLWN | ≤ 0.2
QPHE | ≤ 0.2
KSTV | ≤ 0.2

Variant | one-hybrid fitness for binding parS DNA
RVQN | 0.417
RQTL | ≤ 0.2
YMAR | ≤ 0.2
GPVK | ≤ 0.2
AMQN | ≤ 0.2
WPHG | ≤ 0.2
LNGG | ≤ 0.2
WIMS | ≤ 0.2
VHSW | ≤ 0.2
EFYK | ≤ 0.2
AYRE | ≤ 0.2
RFRL | ≤ 0.2
MPFS | ≤ 0.2
GRQW | ≤ 0.2
GGSD | ≤ 0.2
TSPQ | ≤ 0.2
PNEL | ≤ 0.2
IIVL | ≤ 0.2
GAQI | ≤ 0.2
VAIR | ≤ 0.2
WSLR | ≤ 0.2
DGPW | ≤ 0.2
LVYF | ≤ 0.2
NGSL | ≤ 0.2

Variant | one-hybrid fitness for binding parS DNA
RIAV | ≤ 0.2
NVVV | ≤ 0.2
SWRT | ≤ 0.2
YGAI | ≤ 0.2
PYLY | ≤ 0.2
SPQP | ≤ 0.2
YFRC | ≤ 0.2
DLGP | ≤ 0.2
FHRS | ≤ 0.2
IYLV | ≤ 0.2
MQGD | ≤ 0.2
KMAS | ≤ 0.2
KAPR | ≤ 0.2
CLLG | ≤ 0.2
GWRC | ≤ 0.2
EHTD | ≤ 0.2
VGDS | ≤ 0.2
SLII | ≤ 0.2
DCYG | ≤ 0.2
TTNN | ≤ 0.2
NCKS | ≤ 0.2
AQHS | ≤ 0.2
AFSW | ≤ 0.2
MHHD | ≤ 0.2

Variant | one-hybrid fitness for binding parS DNA
VLWL | ≤ 0.2
WQSC | ≤ 0.2
MKPA | ≤ 0.2
YQST | ≤ 0.2
HPRA | ≤ 0.2
VYSK | ≤ 0.2
VIWC | ≤ 0.2
QWAV | ≤ 0.2
GPLR | ≤ 0.2
PFSR | ≤ 0.2
AHGN | ≤ 0.2
HCTF | ≤ 0.2
VTQT | ≤ 0.2
TSVS | ≤ 0.2
PCCY | ≤ 0.2
RKAL | ≤ 0.2
QSCC | ≤ 0.2
PECT | ≤ 0.2
HFLT | ≤ 0.2
HHEG | ≤ 0.2
YLSQ | ≤ 0.2
VYKP | ≤ 0.2
HAGM | ≤ 0.2
ASML | ≤ 0.2

Variant | one-hybrid fitness for binding parS DNA
QHPC | ≤ 0.2
VSMS | ≤ 0.2
GVGT | ≤ 0.2
TSTV | ≤ 0.2
ACHK | ≤ 0.2
ALYC | ≤ 0.2
HFKT | ≤ 0.2
SNGV | 0.233
RKIN | 0.322
QSTA | ≤ 0.2
RPYD | ≤ 0.2
PKMN | ≤ 0.2
KEHT | ≤ 0.2
WYVV | ≤ 0.2
FVRM | ≤ 0.2
QLQY | ≤ 0.2
RHEI | ≤ 0.2
CTRF | ≤ 0.2
MRER | ≤ 0.2
KRSV | ≤ 0.2
DHKT | ≤ 0.2
CIER | ≤ 0.2
SIRH | ≤ 0.2
DQPM | ≤ 0.2

Variant | one-hybrid fitness for binding parS DNA
RPNL | ≤ 0.2
SPST | ≤ 0.2
STRR | ≤ 0.2
PSHL | ≤ 0.2
AFNS | ≤ 0.2
SPNT | ≤ 0.2
HALV | ≤ 0.2
ARSN | ≤ 0.2
QCCC | ≤ 0.2
RGCF | ≤ 0.2
EKER | ≤ 0.2
TAIT | ≤ 0.2
PDTE | ≤ 0.2
VYSN | ≤ 0.2
VATG | ≤ 0.2
ASKY | ≤ 0.2
DLPY | ≤ 0.2
GADV | ≤ 0.2
EIAT | ≤ 0.2
TIHC | ≤ 0.2
QQQD | ≤ 0.2
AAGT | ≤ 0.2
SIDS | ≤ 0.2
IRLC | ≤ 0.2

Variant | one-hybrid fitness for binding parS DNA
MKVS | ≤ 0.2
VMIT | ≤ 0.2
IEVY | ≤ 0.2
NQKF | ≤ 0.2
CVQC | ≤ 0.2
DREL | ≤ 0.2
YCGC | ≤ 0.2
WYCR | ≤ 0.2
GSWS | ≤ 0.2
GQRV | ≤ 0.2
GMQP | ≤ 0.2
FTIK | ≤ 0.2
NEAV | ≤ 0.2
LTMT | ≤ 0.2
GLHG | ≤ 0.2
RCFL | ≤ 0.2
MVIL | ≤ 0.2
QAGR | ≤ 0.2
AEQL | ≤ 0.2
VSEG | ≤ 0.2
LWYM | ≤ 0.2
IPLR | ≤ 0.2
HFPC | ≤ 0.2
HDNR | ≤ 0.2

Variant | one-hybrid fitness for binding parS DNA
RDDI | ≤ 0.2
TSLI | ≤ 0.2
PRPV | ≤ 0.2
LHDC | ≤ 0.2
VLQC | ≤ 0.2
KLAY | ≤ 0.2
FYHF | ≤ 0.2
NLNT | ≤ 0.2
SSLF | ≤ 0.2
KHSR | ≤ 0.2
QYAF | ≤ 0.2
SVWT | ≤ 0.2
TSQR | ≤ 0.2
KNKH | ≤ 0.2
RYYV | ≤ 0.2
YCTG | ≤ 0.2
RIWQ | ≤ 0.2
ARIK | ≤ 0.2
SPPN | ≤ 0.2
YHDT | ≤ 0.2
VRAI | ≤ 0.2
NLRT | ≤ 0.2
DRDE | ≤ 0.2
SNLK | ≤ 0.2

Variant | one-hybrid fitness for binding parS DNA
MIDE | ≤ 0.2
ALEL | ≤ 0.2
WALT | ≤ 0.2
GAKR | ≤ 0.2
QLGN | ≤ 0.2
VWKS | ≤ 0.2
ALSC | ≤ 0.2
SMKM | ≤ 0.2
KRPE | ≤ 0.2
VGQF | ≤ 0.2
NAAV | ≤ 0.2
HPQG | ≤ 0.2
RIHM | 0.331
IVVT | ≤ 0.2
YWTS | ≤ 0.2
PPII | ≤ 0.2
FSHS | ≤ 0.2
KCIT | ≤ 0.2
LTWF | ≤ 0.2
KNSM | ≤ 0.2
YRPK | ≤ 0.2
QRVQ | ≤ 0.2
DNNS | ≤ 0.2
PKGI | ≤ 0.2

Variant | one-hybrid fitness for binding parS DNA
HSIG | ≤ 0.2
FTPF | ≤ 0.2
EATT | ≤ 0.2
ETRL | ≤ 0.2
LYPS | ≤ 0.2
WRGS | ≤ 0.2
RRTM | 0.351
LHTG | ≤ 0.2
ILKT | ≤ 0.2
GQLN | ≤ 0.2
RWES | 0.712
MMIG | ≤ 0.2
QGEI | ≤ 0.2
QTGM | ≤ 0.2
WTSE | ≤ 0.2
ECTT | ≤ 0.2
GRPW | ≤ 0.2
CPKF | ≤ 0.2
